From PubChem BioAssay AID504466 (National Center for Advancing Translational Sciences (NCATS), 2011)
In all, about 330,000 compounds went through this assay and about 4,200 (1.3%) were called active. Inconclusive results, whose numbers are uncertain, are shown with a selection of clear calls. The call rests on the fitted dose curve; in most records, active means well fitted activation curve with a large enough effect; inconclusive means small, poorly fitted or top-dose-only effect; inactive means no such curve, though single readings can be large or run the other way. A potency beside an inconclusive call is a rough fit, not a confirmed value.

Test: qHTS screen for small molecules that induce genotoxicity in human embryonic kidney (HEK293T) cells expressing luciferase-tagged ELG1; further: nearly all actives have a fitted effect of over 60% in size; on activity change, positive = activation: % of control where 0% means no effect
Conditions: HEK293T ELG1-luciferase reporter, luminescence, 16 h; series mostly up to 46 µM; activity change, positive = activation: at the top concentration
Method in brief: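 HEK293T cells expressing luciferase-tagged ELG1 were treated with compound or DMSO for 16 hr at 37°C. Luciferase activity was then read after 30 min with ONE-Glo at room temperature; rising signal flags genetic stress.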
Potency means the concentration at half of the fitted maximal effect; tags describe the fitted curve by direction and shape.

| Compound | activity change, positive = activation | Potency |
| --- | --- | --- |
| Cc1nn(C)cc1S(=O)(=O)N1CCN(c2ccccc2F)CC1 | inactive: -2.58% |  |
| O=C(NCC(=O)N1CCCC(C(F)(F)F)C1)c1ccc(Oc2ccccc2)cc1 (stereo unspecified) |  | inconclusive: 5.17 µM [activator, single point] |
| c1ccc2nc(-c3ccc(-n4ccnc4)cc3)ccc2c1 |  | active: 2.59 µM |
| N#C/C(=C/c1ccc(N2CCOCC2)o1)c1nc2ccccc2[nH]1 |  | active: 2.31 µM |
| C/C(=N\O)c1ccc2c3ccccc3n(C)c2c1 |  | inconclusive: 18.4 µM [activator, partial curve, poor fit] |
| O=C1Nc2ccccc2S/C1=C/Nc1cccc(Cl)c1 |  | inconclusive: 13 µM [activator, partial curve, poor fit] |
| COCCOC(=O)c1c(C)nc(SCC(=O)Nc2cccc3ccccc23)c(C#N)c1-c1ccco1 | inactive: -9.11% |  |
| CCOc1nc(-c2ccc(Cl)cc2Cl)ccc1C#N |  | inconclusive: 29.1 µM [activator, single point] |
| COC(=O)Cc1c(C)nc2nc(-c3ccc(OC)cc3)[nH]n2c1=O |  | inconclusive: 31.6 µM [activator, partial curve, poor fit] |
| COc1ccc(/C=N/NC(=O)Nc2nonc2N)cc1 |  | inconclusive: 23.1 µM [activator, partial curve, poor fit] |
| Cc1ccc(NC(=O)c2ccc(NS(=O)(=O)c3ccc4[nH]c(=O)[nH]c4c3)cc2)nc1 | inactive: -4.79% |  |
| COc1ccc(NC(=O)c2noc3c2CCC3)cc1 |  | inconclusive: 1 µM [activator, partial curve, poor fit] |
| CC(=O)c1ccc(NC(=O)COC(=O)C2CC3C=CC2C3)cc1 (stereo unspecified) |  | inconclusive: 14.6 µM [activator, partial curve, poor fit] |
| COc1ccc(/C=C(/C(=O)c2cccs2)N2C=CC=CC2=C(C#N)C#N)cc1 |  | inconclusive: 23.1 µM [activator, single point] |
| C/C(=N\NC(=O)c1ccc(F)cc1)c1ccc(NC(=O)Cc2ccccc2)cc1 |  | inconclusive: 18.3 µM [activator, single point] |
| Cc1ccc(C(=O)Cn2cnc3ccccc3c2=O)cc1 |  | inconclusive: 18.4 µM [activator, single point] |
| Cc1ccc2c(c1)COc1c3ccc(C(=O)NCCO)cc3nn1-2 |  | active: 14.6 µM |
| Cc1ccc(-n2[nH]c(C)c(/C=N/NC(=O)c3ccc(O)cc3O)c2=O)cc1 |  | inconclusive: 14.6 µM [activator, partial curve] |
| COc1ccc(N/C=C(\C2OC(=O)c3ccccc32)[N+](=O)[O-])cc1 (stereo unspecified) |  | inconclusive: 20.6 µM [activator, partial curve, poor fit] |
| C=CCNc1nc(-c2ccc([N+](=O)[O-])cc2)cs1 |  | active: 20.6 µM |
| CC(/C=N/NC(=O)c1sc(N)nc1C)=C\c1ccccc1 |  | inconclusive: 3.26 µM [activator, single point] |
| CCCc1cc(=O)[nH]c2nnc(SCC(=O)N3CC(C)OC(C)C3)n12 (stereo unspecified) | inactive: 0.867% |  |
| COc1cccc(CC(NC(C)=O)C(=O)NC2CCN(C(=O)NCc3ccccc3)CC2)c1 (stereo unspecified) | inactive: 0.225% |  |
| CN(c1ccccc1)S(=O)(=O)c1ccc(Cl)c(C(=O)Nc2ccccc2N2CCOCC2)c1 | inactive: -8.63% |  |
| CC(C)(C)c1ccc(-c2nnc(SCC(=O)c3ccc4c(c3)OCCO4)o2)cc1 | inactive: -3.17% |  |
| O=C(c1cnn2c(C(F)F)cc(-c3ccccc3)nc12)N1CCN(Cc2ccc3c(c2)OCO3)CC1 | inactive: -14.1% |  |

| Compound | activity change, positive = activation | Potency |
| --- | --- | --- |
| COc1ccc(NC(=O)c2cc(CC(C)C)nc3ccccc23)cc1 | inactive: -11.2% |  |
| Cc1ccc(NC(=O)C2COc3ccccc3O2)cc1 (stereo unspecified) |  | inconclusive: 13 µM [activator, partial curve] |
| CCOC(=O)c1c(NC(=O)c2cccnc2)sc(C)c1C | inactive: -0.0341% |  |
| COc1ccc(OCC(=O)Nc2cccc(-c3nc4ccccc4o3)c2)cc1 |  | inconclusive: 12.6 µM [activator, single point] |
| COC(=O)c1cc(CSc2nc3ccccc3[nH]2)oc1C |  | active: 9.2 µM |
| Cn1c(=O)c(=O)n(C)c2cc(S(=O)(=O)Nc3ccc4c(c3)OCCO4)ccc21 |  | inconclusive: 14.1 µM [activator, partial curve, poor fit] |
| COc1cc(/C=C2/C(=O)N(C)C(=S)N2C)ccc1OCc1cccc(F)c1 |  | inconclusive: 12.6 µM [activator, single point] |
| Cc1nc2cc(NC(=O)Nc3cccc(F)c3)ccc2n1C |  | active: 0.92 µM |
| Cc1ccc(S(=O)(=O)NCc2ccccc2)cc1C(=O)N(C)Cc1ccc(F)cc1 | inactive: -7.68% |  |
| O=C(CSc1cn(Cc2ccccc2)c2ccccc12)N1CCOCC1 |  | active: 18.4 µM |
| CN(C)c1ccc(-c2cc3ccccc3c(=O)o2)cc1 |  | inconclusive: 0.651 µM [activator, full curve] |
| Clc1ccc(-c2nnc(-c3ccccc3)o2)c(Cl)c1 |  | inconclusive: 0.366 µM [activator, full curve] |
| COc1ccc(OC)c2[nH]c(C(=O)N/N=C/c3ccccc3O)cc12 |  | inconclusive: 32.6 µM [activator, partial curve, poor fit] |
| Cc1cc(C(=O)COC(=O)c2ccc(O)cc2)c(C)n1-c1ccccc1F |  | inconclusive: 4.61 µM [activator, single point] |
| Cc1cccc(-n2c(O)c(C=Nc3ccccc3O)c3ccccc3c2=O)n1 | inactive: -9.03% |  |
| O=C(NNC(=O)c1cc(-c2ccncc2)nc2ccccc12)c1ccccc1F | inactive: -0.182% |  |
| CC(C)c1ccc(NC(=O)c2snc3ccc(Cl)cc23)cc1 |  | inconclusive: 7.31 µM [activator, partial curve] |
| O=[N+]([O-])c1ccc2nc(N3CCCC3)sc2c1 |  | inconclusive: 18.3 µM [activator, single point] |
| CNC(=O)c1cc(C(=O)c2ccc(C(F)(F)F)cc2)c[nH]1 |  | inconclusive: 20.6 µM [activator, partial curve, poor fit] |
| O=C(O)c1ccc(N2Cc3ccccc3C2)cc1O | inactive: 2.52% |  |
| Cc1n[nH]c(=O)n1-c1ccc(OCc2ccccc2)cc1 |  | inconclusive: 14.6 µM [activator, partial curve, poor fit] |
| CCOc1ccc(N2C(=O)S/C(=C\c3ccc(O)c(OCC)c3)C2=O)cc1 | inactive: 0.707% |  |
| CC(C)OC(=O)c1cccc(-c2ccc(C=O)o2)c1 |  | inconclusive: 23.1 µM [activator, partial curve, poor fit] |
| CCCn1c(CCc2ccccc2)n[nH]c1=S | inactive: 0.0534% |  |
| O=C(Nc1ccc(F)cc1)NC1CCCCCCC1 |  | inconclusive: 8.2 µM [activator, partial curve] |
| CCNC(=S)N/N=C/c1cc(C)n(-c2ccc(Cl)cc2)c1C |  | inconclusive: 14.6 µM [activator, single point] |

| Compound | activity change, positive = activation | Potency |
| --- | --- | --- |
| Cc1ccc2c(C)c(C(=O)Nc3cccnc3)oc2c1 |  | inconclusive: 10.3 µM [activator, partial curve] |
| COc1ccc(Cl)cc1N(CC(=O)Nc1ccccc1C(=O)N1CCOCC1)S(C)(=O)=O | inactive: 0.0736% |  |
| CSc1ccc(Cl)c(C(=O)N2CCOc3ccccc32)c1 | inactive: -6.69% |  |
| CC1=CC(C)=Nc2ccc(C)cc2N1 |  | active: 7.08 µM |
| Clc1cccc(-c2nnc(-c3ccccc3)o2)c1 |  | active: 1.16 µM |
| CC1CCCCN1C(=O)CSc1nnc(-c2ccccc2F)o1 (stereo unspecified) |  | inconclusive: 23.1 µM [activator, partial curve] |
| CCCCc1nc2cc(C(=O)N3CCCCC3C(=O)OC)ccc2o1 (stereo unspecified) |  | inconclusive: 14.6 µM [activator, partial curve] |
| O=C(COC(=O)C1COc2ccccc2O1)NC(=O)Nc1ccc2c(c1)OCCO2 (stereo unspecified) |  | inconclusive: 18.4 µM [activator, partial curve, poor fit] |
| COc1ccc(-c2cc3nc4n(c(=O)c3s2)CCCCC4)cc1 |  | active: 2.59 µM |
| CC1CCN(C(=O)CCNC(=O)c2ccccc2)CC1 |  | inconclusive: 20.6 µM [activator, partial curve, poor fit] |
| CC(C)NC(=O)CSc1ccccc1C(=O)NNC(=O)Cn1ccc(C(F)(F)F)n1 | inactive: -6.37% |  |
| Nc1n[nH]c(=S)n1/N=C1/C(=O)Nc2ccccc21 | inactive: -0.004% |  |
| Cc1cc(C(=O)COC(=O)c2cc(Cl)ccc2N)c(C)n1Cc1ccco1 |  | active: 9.2 µM |
| O=C(c1ccc(F)cc1)c1ccc(N2CCCC2)cc1 |  | active: 14.1 µM |
| CC1CCN(C(=O)CSCc2ccc(Cl)cc2)CC1 |  | active: 14.6 µM |
| O=C(N/N=C\c1c(O)ccc2ccccc12)c1ccc(Cn2cccn2)o1 |  | inconclusive: 10.3 µM [activator, partial curve, poor fit] |
| O=C(CCCOc1ccccc1)N1CCN(C(=O)c2ccco2)CC1 |  | inconclusive: 20.6 µM [activator, partial curve] |
| O=C(NCCCN1CCOCC1)c1cc2c(s1)CCC2 |  | inconclusive: 18.4 µM [activator, partial curve, poor fit] |
| c1ccc(-n2ncc3c2ncn2nc(-c4ccco4)nc32)cc1 |  | active: 1.64 µM |
| O=C(COc1coc(CN2CCN(c3ccc(F)cc3)CC2)cc1=O)NCC1CCCO1 (stereo unspecified) | inactive: -0.336% |  |
| O=C(c1ccc(F)cc1F)N1CCCN(c2nc(-c3ccccc3)ns2)CC1 | inactive: -3.65% |  |
| O=C(Cc1ccccc1)c1nnc(-c2ccccc2)o1 | inactive: -2.54% |  |
| Cc1c(N/N=C(\C#N)C(=O)c2ccc(Cl)cc2)c(=O)n(-c2ccccc2)n1C |  | inconclusive: 29.1 µM [activator, single point] |
| COc1cc(/C=N/N2CCN(c3ccccc3OC)CC2)ccc1O |  | inconclusive: 23.1 µM [activator, partial curve] |
